# For part of its entries the source gives two or more results. Only these are listed. There may be further records. Some entries list several cross-links; each record is another pair of residues.
# Biological target: YWHAZ (UniProt P63104)
# Conditions: DSSO, in cells
# UniProt P63104, sequence (P63104 whole entry): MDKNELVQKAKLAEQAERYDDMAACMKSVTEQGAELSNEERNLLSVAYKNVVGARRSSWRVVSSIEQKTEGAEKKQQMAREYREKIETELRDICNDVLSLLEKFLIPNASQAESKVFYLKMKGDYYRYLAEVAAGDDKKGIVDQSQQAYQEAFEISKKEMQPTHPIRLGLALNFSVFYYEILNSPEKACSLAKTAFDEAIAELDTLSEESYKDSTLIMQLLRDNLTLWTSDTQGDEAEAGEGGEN
# YWHAG, sequence (P61981 whole entry): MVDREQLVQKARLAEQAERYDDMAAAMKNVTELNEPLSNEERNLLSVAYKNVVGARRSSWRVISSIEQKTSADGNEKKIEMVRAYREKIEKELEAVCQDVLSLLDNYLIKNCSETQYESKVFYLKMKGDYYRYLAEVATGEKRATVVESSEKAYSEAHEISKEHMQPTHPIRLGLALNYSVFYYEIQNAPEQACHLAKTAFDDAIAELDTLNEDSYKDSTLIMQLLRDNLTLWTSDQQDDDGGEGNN
# YWHAQ, sequence (P27348 whole entry): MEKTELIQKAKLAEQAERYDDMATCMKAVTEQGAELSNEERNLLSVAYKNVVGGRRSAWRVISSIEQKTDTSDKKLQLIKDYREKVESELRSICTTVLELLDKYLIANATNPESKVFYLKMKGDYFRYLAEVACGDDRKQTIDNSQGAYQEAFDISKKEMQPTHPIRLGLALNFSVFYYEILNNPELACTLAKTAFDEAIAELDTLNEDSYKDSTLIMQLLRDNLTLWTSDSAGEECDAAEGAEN
# YWHAE, sequence (P62258 whole entry): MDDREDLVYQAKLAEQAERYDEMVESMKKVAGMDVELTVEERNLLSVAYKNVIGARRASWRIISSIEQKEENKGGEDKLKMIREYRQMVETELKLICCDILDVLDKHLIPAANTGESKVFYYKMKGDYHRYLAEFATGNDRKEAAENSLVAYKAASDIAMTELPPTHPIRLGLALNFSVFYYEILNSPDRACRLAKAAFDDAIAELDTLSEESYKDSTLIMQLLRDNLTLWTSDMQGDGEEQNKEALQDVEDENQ
row,Substance,cross-linked residues
1,"YWHAG, P61981",M1 - K74 and K10 - K74 and K77 - K9
2,"YWHAQ, P27348",K9 - K74 and K9 - Y82 and K85 - K9
3,"YWHAE, P62258",K69 - K11 and K73 - K3

# Reference: PMC13423814
